Data: PubChem BioAssay (NCI)
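96-well plates; 48 h exposure; 5 concentrations. Endpoints by linear interpolation between flanking doses. Not reached: highest tested concentration assigned. The concentration for 50% growth inhibition is given as GI50. TGI: total growth inhibition.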

System: NCI-H322M lung
Experiment: NCI tumour cell line growth inhibition, 48 h

O=C(NCCCCCCCCCC[P+](c1ccccc1)(c1ccccc1)c1ccccc1)c1ccc(-n2nc(-c3ccccc3O)nc2-c2ccccc2O)cc1 showed a GI50 of 175 nM and a TGI of 1020 nM.
